Source: the supplement of paper PMC8728848
The list shows a part of the results.

Experiments:
Assay in all cases: glycan array binding signal (z-score within array); higher = stronger binding
Details in all cases: glycan notation: IUPAC condensed, linker removed
[1] = target: GlcNAc(b1-3)Gal(b1-4)GlcNAc(b1-3)Gal(b1-4)GlcNAc(b1-3)GalNAc
Outline: (§1)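 Glycan array data came from 3228 arrays in the Consortium for Functional Glycomics database, and only arrays with an available protein sequence were kept. Glycan names were put into IUPAC-condensed notation, and columns mapping to the same glycan were averaged. The binding signal is a within-array Z-score, averaged across arrays of one protein sequence run at different concentrations or buffers and across linkers. A negative Z-score can be read as non-binding.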

[2] = target: GlcNAc(b1-3)Gal(b1-4)GlcNAc(b1-3)GalNAc
Outline: as §1

[3] = target: GlcNAc(b1-3)Gal(b1-4)GlcNAc(b1-3)[GlcNAc(b1-3)Gal(b1-4)GlcNAc(b1-3)]GalNAc
Outline: as §1

[4] = target: GlcNAc(b1-3)Gal(b1-4)GlcNAc(b1-6)[Gal(b1-3)]GalNAc
Outline: as §1

[5] = target: GlcNAc(b1-3)Gal(b1-4)GlcNAc(b1-6)[GlcNAc(b1-3)Gal(b1-3)]GalNAc
Outline: as §1

[6] = target: GlcNAc(b1-3)Gal(b1-4)GlcNAc(b1-6)[GlcNAc(b1-3)]Gal(b1-4)GlcNAc
Outline: as §1

GlcNAc(b1-3)GalNAc = target: GlcNAc(b1-3)GalNAc
Outline: as §1

GlcNAc(b1-3)Man = target: GlcNAc(b1-3)Man
Outline: as §1

[7] = target: GlcNAc(b1-3)[GlcNAc(b1-4)][GlcNAc(b1-6)]GlcNAc
Outline: as §1

[8] = target: GlcNAc(b1-3)[GlcNAc(b1-6)]Gal(b1-4)GlcNAc
Outline: as §1

[9] = target: GlcNAc(b1-3)[GlcNAc(b1-6)]GalNAc
Outline: as §1

[10] = target: GlcNAc(b1-4)Gal(b1-4)GlcNAc
Outline: as §1

GlcNAc(b1-4)GlcNAc = target: GlcNAc(b1-4)GlcNAc
Outline: as §1

[11] = target: GlcNAc(b1-4)GlcNAc(b1-4)GlcNAc
Outline: as §1

[12] = target: GlcNAc(b1-4)GlcNAc(b1-4)GlcNAc(b1-4)GlcNAc(b1-4)GlcNAc
Outline: as §1

[13] = target: GlcNAc(b1-4)GlcNAc(b1-4)GlcNAc(b1-4)GlcNAc(b1-4)GlcNAc(b1-4)GlcNAc
Outline: as §1

[14] = target: GlcNAc(b1-4)[GlcNAc(b1-6)]GalNAc
Outline: as §1

[15] = target: GlcNAc(b1-6)Gal(b1-4)GlcNAc
Outline: as §1

GlcNAc(b1-6)GalNAc = target: GlcNAc(b1-6)GalNAc
Outline: as §1

[16] = target: GlcNAc6S(b1-3)Gal(b1-4)GlcNAc
Outline: as §1

Kdn(a2-3)Gal(b1-3)GalNAc = target: Kdn(a2-3)Gal(b1-3)GalNAc
Outline: as §1

Kdn(a2-3)Gal(b1-3)GlcNAc = target: Kdn(a2-3)Gal(b1-3)GlcNAc
Outline: as §1

Kdn(a2-3)Gal(b1-4)Glc = target: Kdn(a2-3)Gal(b1-4)Glc
Outline: as §1

Kdn(a2-3)Gal(b1-4)GlcNAc = target: Kdn(a2-3)Gal(b1-4)GlcNAc
Outline: as §1

[17] = target: Kdn(a2-3)Gal(b1-4)[Fuc(a1-3)]GlcNAc
Outline: as §1

Kdn(a2-6)Gal(b1-4)GlcNAc = target: Kdn(a2-6)Gal(b1-4)GlcNAc
Outline: as §1

[18] = target: Man(a1-2)Man(a1-2)Man(a1-3)Man
Outline: as §1

[19] = target: Man(a1-2)Man(a1-2)Man(a1-6)[Man(a1-3)]Man
Outline: as §1

Man(a1-2)Man(a1-3)Man = target: Man(a1-2)Man(a1-3)Man
Outline: as §1

[20] = target: Man(a1-2)Man(a1-3)[Man(a1-2)Man(a1-6)]Man
Outline: as §1

[21] = target: Man(a1-2)Man(a1-3)[Man(a1-2)Man(a1-6)]Man(a1-6)[Man(a1-2)Man(a1-2)Man(a1-3)]Man
Outline: as §1

[22] = target: Man(a1-2)Man(a1-3)[Man(a1-2)Man(a1-6)]Man(a1-6)[Man(a1-2)Man(a1-2)Man(a1-3)]Man(b1-4)GlcNAc(b1-4)GlcNAc
Outline: as §1

[23] = target: Man(a1-2)Man(a1-3)[Man(a1-6)]Man(a1-6)[Man(a1-2)Man(a1-3)]Man(b1-4)GlcNAc(b1-4)GlcNAc
Outline: as §1

[24] = target: Man(a1-2)Man(a1-6)[Man(a1-3)]Man(a1-6)[Man(a1-2)Man(a1-2)Man(a1-3)]Man
Outline: as §1

[25] = target: Man(a1-2)Man(a1-6)[Man(a1-3)]Man(a1-6)[Man(a1-2)Man(a1-2)Man(a1-3)]Man(b1-4)GlcNAc(b1-4)GlcNAc
Outline: as §1

Man(a1-3)[Man(a1-6)]Man = target: Man(a1-3)[Man(a1-6)]Man
Outline: as §1

[26] = target: Man(a1-3)[Man(a1-6)]Man(a1-6)[Man(a1-2)Man(a1-3)]Man(b1-4)GlcNAc(b1-4)GlcNAc
Outline: as §1

[27] = target: Man(a1-3)[Man(a1-6)]Man(a1-6)[Man(a1-3)]Man
Outline: as §1

[28] = target: Man(a1-3)[Man(a1-6)]Man(a1-6)[Man(a1-3)]Man(b1-4)GlcNAc(b1-4)GlcNAc
Outline: as §1

[29] = target: Man(a1-3)[Man(a1-6)]Man(b1-4)GlcNAc(b1-4)GlcNAc
Outline: as §1

[30] = target: Man(a1-3)[Man(a1-6)]Man(b1-4)GlcNAc(b1-4)[Fuc(a1-6)]GlcNAc
Outline: as §1

Man(a1-6)Man = target: Man(a1-6)Man
Outline: as §1

Man(b1-4)GlcNAc = target: Man(b1-4)GlcNAc
Outline: as §1

MurNAc(b1-4)GlcNAc = target: MurNAc(b1-4)GlcNAc
Outline: as §1

Neu5Ac(a2-3)Gal = target: Neu5Ac(a2-3)Gal
Outline: as §1

B1: PLU (Photorhabdus luminiscence) (protein)
chain: HHHHHHENLYFQSSIVFASIDPRSNPLQTSSQNYVDIPGLKLDVSKYSNSPCLTALITLNIPTPYASGNNFPGGNFAIVTDQGEQLAYGGFTYSSKIPENSGRMPFTLVARYSLASNVSTIKAQWSNIRGSTVHIDSYASISAVIQCNQLV
glycan array binding signal (z-score) [1]: -0.301 | glycan array binding signal (z-score) [2]: -0.284 | glycan array binding signal (z-score) [3]: -0.337 | glycan array binding signal (z-score) [4]: -0.293 | glycan array binding signal (z-score) [5]: -0.212 | glycan array binding signal (z-score) [6]: -0.345 | glycan array binding signal (z-score) (GlcNAc(b1-3)GalNAc): -0.342 | glycan array binding signal (z-score) (GlcNAc(b1-3)Man): -0.295 | glycan array binding signal (z-score) [7]: -0.158 | glycan array binding signal (z-score) [8]: -0.267 | glycan array binding signal (z-score) [9]: -0.188 | glycan array binding signal (z-score) [10]: -0.134 | glycan array binding signal (z-score) (GlcNAc(b1-4)GlcNAc): -0.327 | glycan array binding signal (z-score) [11]: -0.336 | glycan array binding signal (z-score) [12]: -0.29 | glycan array binding signal (z-score) [13]: -0.294 | glycan array binding signal (z-score) [14]: -0.269 | glycan array binding signal (z-score) [15]: -0.306 | glycan array binding signal (z-score) (GlcNAc(b1-6)GalNAc): -0.336 | glycan array binding signal (z-score) [16]: -0.297 | glycan array binding signal (z-score) (Kdn(a2-3)Gal(b1-3)GalNAc): -0.25 | glycan array binding signal (z-score) (Kdn(a2-3)Gal(b1-3)GlcNAc): -0.273 | glycan array binding signal (z-score) (Kdn(a2-3)Gal(b1-4)Glc): -0.256 | glycan array binding signal (z-score) (Kdn(a2-3)Gal(b1-4)GlcNAc): -0.224 | glycan array binding signal (z-score) [17]: -0.331 | glycan array binding signal (z-score) (Kdn(a2-6)Gal(b1-4)GlcNAc): -0.225 | glycan array binding signal (z-score) [18]: -0.265 | glycan array binding signal (z-score) [19]: -0.269 | glycan array binding signal (z-score) (Man(a1-2)Man(a1-3)Man): -0.32 | glycan array binding signal (z-score) [20]: -0.268 | glycan array binding signal (z-score) [21]: -0.329 | glycan array binding signal (z-score) [22]: -0.198 | glycan array binding signal (z-score) [23]: -0.266 | glycan array binding signal (z-score) [24]: -0.256 | glycan array binding signal (z-score) [25]: -0.197 | glycan array binding signal (z-score) (Man(a1-3)[Man(a1-6)]Man): -0.237 | glycan array binding signal (z-score) [26]: -0.207 | glycan array binding signal (z-score) [27]: -0.093 | glycan array binding signal (z-score) [28]: -0.268 | glycan array binding signal (z-score) [29]: -0.247 | glycan array binding signal (z-score) [30]: -0.286 | glycan array binding signal (z-score) (Man(a1-6)Man): -0.273 | glycan array binding signal (z-score) (Man(b1-4)GlcNAc): -0.33 | glycan array binding signal (z-score) (MurNAc(b1-4)GlcNAc): -0.314 | glycan array binding signal (z-score) (Neu5Ac(a2-3)Gal): -0.28
